From the supplement of paper PMC4604168 (melanoma cell lines) come the findings set out here.

SMILES strings stand for the structures. This is one part of the list. Repeats are few or missing, and single values can be far off.
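Note: cells treated in 1,536-well plates, then fixed and DAPI-stained, with nuclei counted from automated high-throughput microscope images.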

For the assay, the system named is COLO829. The assay can be described thus: cell count relative to DMSO control; melanoma cells; higher = more viable cells. The settings on record: library dose: standard library concentration; 72 h.
`CC[C@]1(O)C[C@H]2CN(CCc3c([nH]c4ccccc34)[C@@](C(=O)OC)(c3cc4c(cc3OC)N(C=O)[C@H]3[C@@](O)(C(=O)OC)[C@H](OC(C)=O)[C@]5(CC)C=CCN6CC[C@]43[C@@H]65)C2)C1` [vincristine] + COc1ccc2c(c1)CCC1C2CCC2(C)C(NCCCCCCN3C(=O)C=CC3=O)CCC12 [U73122] (first compound 0.0005 µM, partner dose 2 µM) displayed a cell count of 92.1%. Compound `Cc1cc(Nc2cc(N3CCN(C)CC3)nc(Sc3ccc(NC(=O)C4CC4)cc3)n2)n[nH]1` [Tozasertib] + N#Cc1c(O)c2c(-c3ccc(-c4ccccc4O)cc3)csc2[nH]c1=O [A769662] (first compound 0.03 µM, partner dose 10 µM) showed a cell count of 76.5%.

`Cc1cc(Nc2cc(N3CCN(C)CC3)nc(Sc3ccc(NC(=O)C4CC4)cc3)n2)n[nH]1` [Tozasertib] + Cn1cncc1[C@@](N)(c1ccc(Cl)cc1)c1ccc2c(c1)c(-c1cccc(Cl)c1)cc(=O)n2C [tipifarnib] (first compound 0.03 µM, partner dose 0.05 µM) had a cell count of 89.4%.

In turn, `Cc1cc(Nc2cc(N3CCN(C)CC3)nc(Sc3ccc(NC(=O)C4CC4)cc3)n2)n[nH]1` [Tozasertib] + C#Cc1cccc(Nc2ncnc3cc(OCCOC)c(OCCOC)cc23)c1 [erlotinib] (first compound 0.03 µM, partner dose 4 µM) returned a cell count of 78.2%. Compound `Cc1cc(Nc2cc(N3CCN(C)CC3)nc(Sc3ccc(NC(=O)C4CC4)cc3)n2)n[nH]1` [Tozasertib] + COc1cc(N2CCC(N3CCN(C)CC3)CC2)ccc1Nc1ncc(Cl)c(Nc2ccccc2S(=O)(=O)C(C)C)n1 [NVP-TAE684] (first compound 0.03 µM, partner dose 0.4 µM) had a cell count of 74.2%. Turning to `CC[C@]1(O)C[C@H]2CN(CCc3c([nH]c4ccccc34)[C@@](C(=O)OC)(c3cc4c(cc3OC)N(C=O)[C@H]3[C@@](O)(C(=O)OC)[C@H](OC(C)=O)[C@]5(CC)C=CCN6CC[C@]43[C@@H]65)C2)C1` [vincristine] + CCc1ccc(CCOc2ccc(CC3SC(=O)NC3=O)cc2)nc1 [pioglitazone] (first compound 0.0005 µM, partner dose 10 µM), the cell count is 45.4%. Take `Cc1cc(Nc2cc(N3CCN(C)CC3)nc(Sc3ccc(NC(=O)C4CC4)cc3)n2)n[nH]1` [Tozasertib] + COc1cc(Nc2ncc(F)c(Nc3ccc4c(n3)NC(=O)C(C)(C)O4)n2)cc(OC)c1OC [Tamatinib] (first compound 0.03 µM, partner dose 2 µM): the cell count was found to be 68.7%. As for `Cc1cc(Nc2cc(N3CCN(C)CC3)nc(Sc3ccc(NC(=O)C4CC4)cc3)n2)n[nH]1` [Tozasertib] + C[C@@H](Oc1cc(-c2cnn(C3CCNCC3)c2)cnc1N)c1c(Cl)ccc(F)c1Cl [Crizotinib] (first compound 0.03 µM, partner dose 1 µM), the cell count came out at 71.6%.

`CC[C@]1(O)C[C@H]2CN(CCc3c([nH]c4ccccc34)[C@@](C(=O)OC)(c3cc4c(cc3OC)N(C=O)[C@H]3[C@@](O)(C(=O)OC)[C@H](OC(C)=O)[C@]5(CC)C=CCN6CC[C@]43[C@@H]65)C2)C1` [vincristine] + CN(NC(=O)CC(=O)NN(C)C(=S)c1ccccc1)C(=S)c1ccccc1 [STA4783] (first compound 0.0005 µM, partner dose 0.03 µM) displayed a cell count of 53%. `CC[C@]1(O)C[C@H]2CN(CCc3c([nH]c4ccccc34)[C@@](C(=O)OC)(c3cc4c(cc3OC)N(C=O)[C@H]3[C@@](O)(C(=O)OC)[C@H](OC(C)=O)[C@]5(CC)C=CCN6CC[C@]43[C@@H]65)C2)C1` [vincristine] + NC1(c2ccc(-c3nc4ccn5c(=O)[nH]nc5c4cc3-c3ccccc3)cc2)CCC1 [MK2206] (first compound 0.0005 µM, partner dose 2 µM) registered a cell count of 80.7%. Consider `CC[C@]1(O)C[C@H]2CN(CCc3c([nH]c4ccccc34)[C@@](C(=O)OC)(c3cc4c(cc3OC)N(C=O)[C@H]3[C@@](O)(C(=O)OC)[C@H](OC(C)=O)[C@]5(CC)C=CCN6CC[C@]43[C@@H]65)C2)C1` [vincristine] + O=C(O)c1ccc(-c2c[nH]c3ncc(-c4ccccc4)cc23)cc1C1CCCC1 [GSK650394] (first compound 0.0005 µM, partner dose 0.8 µM), for which the cell count turned out to be 76.9%. The same measure for `CC[C@]1(O)C[C@H]2CN(CCc3c([nH]c4ccccc34)[C@@](C(=O)OC)(c3cc4c(cc3OC)N(C=O)[C@H]3[C@@](O)(C(=O)OC)[C@H](OC(C)=O)[C@]5(CC)C=CCN6CC[C@]43[C@@H]65)C2)C1` [vincristine] + COc1ccc(C2=N[C@@H](c3ccc(Cl)cc3)[C@@H](c3ccc(Cl)cc3)N2C(=O)N2CCNC(=O)C2)c(OC(C)C)c1 [Nutlin-3] (first compound 0.0005 µM, partner dose 0.5 µM): 69.3%; for `N#CC[C@H](C1CCCC1)n1cc(-c2ncnc3[nH]ccc23)cn1` [ruxolitinib] + CC(=O)c1c(C)c2cnc(Nc3ccc(N4CCNCC4)cn3)nc2n(C2CCCC2)c1=O [palbociclib] (first compound 5 µM, partner dose 0.2 µM): 87.4%.
